Source: patent US10266566B2, “Protease-resistant peptide ligands” (North Carolina State University, priority 2013, dated 2019)
Part of at least one peptide drawing is inferred or uncertain, most often the ends. Some results were stated once for a whole list of compounds, not compound by compound. Some compounds share one range, which may span the group rather than tell each member. Where a SMILES comes first, the peptide text is derived from it. Where no end group is shown, it is not given here. [ ]: non-standard residue; d: D form. The star is where a group is joined. Trp(1-Me) = Cn1cc(C[C@H](N)C(=O)O)c2ccccc21; Phe(4-Me) = Cc1ccc(C[C@H](N)C(=O)O)cc1; Lys(Me2) = CN(C)CCCC[C@H](N)C(=O)O; Cit = NC(=O)NCCC[C@H](N)C(=O)O; For = O=C*

Columns and labels:
[1] = tested on: human polyclonal IgG; assay: Chromatographic IgG binding test of peptide-Toyopearl adsorbents with pure human polyclonal IgG; details: for IgG Yield 1st run: 10 mg/mL hIgG in PBS, prior to contact with any enzyme; for IgG Yield: peptide on Toyopearl resin, approx. 0.12 meq/g, 0.1 mL column, ratio of IgG eluted to total IgG loaded
Experimental: All resins (35 mg each) were packed in a 30 mm×2.1 mm I.D. Microbore column (0.1 mL) (Alltech-Applied Science, Somerset, Pa., USA) and swollen with 20% v/v methanol. After equilibration with PBS, pH 7.4, three IgG binding tests were performed using a 10 mg/mL solution of hIgG in PBS. Between each binding test, the resin was contacted with a 0.15 mg/mL solution of either trypsin or α-chymotrypsin in Tris HCl buffer, pH 8.5. The chromatographic protocol employed for all five injections was as follows. One hundred microliters of feed sample was loaded onto the column at a flow rate of 0.05 mL/min (87 cm/h). After a washing step with 2 mL of equilibration buffer at a flow rate of 0.2 mL/min (348 cm/h), elution was performed with 4 mL of 0.2M acetate buffer pH 4.0 at a flow rate of 0.4 mL/min (696 cm/h). Finally, the adsorbent was regenerated with 4 mL of 0.85% phosphoric acid. The adsorbents HWRGWV-, HYFKFD-, and HFRRHL-Toyopearl (SEQ ID NOS: 6, 16, 17) resins were used as controls. The effluent was monitored by absorbance at 280 nm.
The amount of IgG in the collected fractions was quantified by HPLC using 1 mL HiTrap Protein G column. The yield of IgG was calculated as the ratio of IgG eluted to total IgG loaded. The purity of IgG in the eluted fractions was determined by sodium dodecyl sulfate polyacrylamide gel electrophoresis (SDS-PAGE) under reducing conditions using NuPAGE® Novex 4-12% Bis-Tris gels in a Xcell SuperLock™ Mini-Cell system (LifeSciences, Carlsbad, Calif., USA). Sample preparation was done by adding 5 μL of NuPAGE® LDS buffer and 2 μL of NuPAGE® reducing agent to 13 μL of sample and boiling the resulting mixture for 10 min. Gels were Coomassie-stained by using SimpleBlue™ SafeStain. The IgG purity was determined by densitometric analysis of Coomassie-stained gels by means of ImageJ 1.32j software (National Institutes of Health, Bethesda, Md., USA).
The sequences listed in Table 2 were synthesized on Toyopearl resin, all at the approximate density of 0.12 meq/g. Each adsorbent thus obtained was packed into a chromatographic column (0.1 mL) and tested for IgG binding. Flowthrough and elution fractions were collected and analyzed by Protein G chromatography to determine IgG yield (Table 2). The comparison between the average rank and the yield for each sequence indicates good agreement between the docking simulations and the experimental results of antibody binding. This confirms that the design of the virtual library, the assignment of docking constraints, and the analysis of the simulation results were well performed and form an effective strategy for the selection of peptide variants.
Based on the results reported in Table 2, the original sequences HWRGWV, HFRRHL, and HYFKFD (SEQ ID NOS: 1-3), and their variants HWMetCitGWMetV, HFMetCitCitHL, and HYMetFMetK(Met)2FMetD (SEQ ID NOS: 4, 5, 7) were tested for their resistance to enzymatic digestion. The sequences HWMetCitGWMetV (SEQ ID NO: 8), HFMetCitCitHL (SEQ ID NO: 5) were selected as the best variants of their respective original peptides, while HYMetFMetKMet2FMetD (SEQ ID NO: 7) was used as a negative control. […] Each adsorbent was subjected to five consecutive chromatographic runs. First, a solution of pure human polyclonal IgG at 10 mg/mL in PBS was injected to determine IgG yield for each adsorbent prior to contact with any enzyme. All four peptide variants gave a yield above 91% for this initial run. The resin was then contacted with a solution of α-chymotrypsin in Tris buffer pH 8.5 for 10 minutes. The amount of enzyme loaded onto the column was in a mass ratio of 1:100 peptide:enzyme, as done by Verdoliva et al.. After rinsing the resin, a second injection of IgG was then performed to estimate the loss of binding capacity due to the digestion of the peptide ligand by α-chymotrypsin. The resin was then contacted with the second enzyme solution, i.e., trypsin in Tris buffer pH 8.5, at the same peptide:enzyme ratio. […]

[2] = tested on: IgG; assay: Purification of IgG (IVIG) from Cohn fraction II+III of human plasma, yield and purity; assay type: binding; details: for product purity (in words) / product yield (in words): 0.25M NaCl in PBS
[3] = target: IgG; details: peptide ligands binding IgG; read-out: KD (binding strength); cited from earlier work
[4] = Cohn fraction II+III, binding 0.25M NaCl in PBS, elution 0.2M acetate pH 5.0 (Protein A: PBS binding, 0.1M glycine pH 2.5 elution)
[5] = Cohn fraction II+III, densitometry of SDS-PAGE, binding 0.25M NaCl in PBS, elution pH 5.0 (Protein A: PBS, glycine pH 2.5)
[6] = 0.13M NaCl in PBS binding buffer
[7] = 0.25M NaCl in PBS binding buffer

Compound	IgG Yield 1st run [1] [%]	IgG Yield [1] [%]	product purity (in words) ([2]; Cohn fraction II+III)	product yield (in words) ([2]; Cohn fraction II+III)	IgG Yield [2, 4] [%]	IgG Purity [2, 5] [%]	IgG Purity ([2]; 0M NaCl in PBS binding buffer) [%]	IgG Yield ([2]; 0M NaCl in PBS binding buffer) [%]	IgG Purity [2, 6] [%]	IgG Yield [2, 6] [%]	IgG Purity [2, 7] [%]	IgG Yield [2, 7] [%]	Kd [3] [µM]	IgG purity, any value obtained ([2]; over 0M, 0.13M, 0.25M NaCl binding buffers)
Cc1ccc(C[C@H](NC(=O)[C@@H](N)Cc2c[nH]cn2)C(=O)N[C@@H](CCCNC(N)=O)C(=O)N[C@@H](CCCNC(N)=O)C(=O)N[C@@H](Cc2c[nH]cn2)C(=O)N[C@@H](CC(C)C)C(=O)O)cc1 [HFMetCitCitHL] (H-H[Phe(4-Me)][Cit][Cit]HL-OH; N-terminus and C-terminus assumed)	90	90	very high product yield and purity	very high product yield and purity	89	91	–	–	–	–	–	–	–	–
CC(C)[C@H](NC(=O)[C@H](Cc1c[nH]c2ccccc12)NC(=O)CNC(=O)[C@H](CCCNC(N)=O)NC(=O)[C@H](Cc1c[nH]c2ccccc12)NC(=O)[C@@H](N)Cc1c[nH]cn1)C(=O)O [HWCitGWV] (H-HW[Cit]GWV-OH; N-terminus and C-terminus assumed)	91	91	–	–	–	–	–	–	–	–	–	–	–	–
CC(C)[C@H](NC(=O)[C@H](Cc1cn(C=O)c2ccccc12)NC(=O)CNC(=O)[C@H](CCCNC(N)=O)NC(=O)[C@H](Cc1cn(C=O)c2ccccc12)NC(=O)[C@@H](N)Cc1c[nH]cn1)C(=O)O [HWForCitGWForV] (H-HW(For)[Cit]GW(For)V-OH; N-terminus and C-terminus assumed)	75	75	–	–	–	–	–	–	–	–	–	–	–	–
CC(C)[C@H](NC(=O)[C@H](Cc1cn(C)c2ccccc12)NC(=O)CNC(=O)[C@H](CCCNC(N)=O)NC(=O)[C@H](Cc1cn(C)c2ccccc12)NC(=O)[C@@H](N)Cc1c[nH]cn1)C(=O)O [HWMetCitGWMetV] (H-H[Trp(1-Me)][Cit]G[Trp(1-Me)]V-OH; N-terminus and C-terminus assumed)	90	90	very high product yield and purity	very high product yield and purity	91	92	91	89	91	90	92	91	–	–
CC(C)[C@H](NC(=O)[C@H](Cc1cn(C)c2ccccc12)NC(=O)CNC(=O)[C@H](CCCNC(=N)N)NC(=O)[C@H](Cc1cn(C)c2ccccc12)NC(=O)[C@@H](N)Cc1c[nH]cn1)C(=O)O [HWMetRGWMetV] (H-H[Trp(1-Me)]RG[Trp(1-Me)]V-OH; N-terminus and C-terminus assumed)	91	91	–	–	–	–	–	–	–	–	–	–	–	–
COc1ccc(C[C@H](NC(=O)[C@@H](N)Cc2c[nH]cn2)C(=O)N[C@@H](Cc2ccc(C)cc2)C(=O)N[C@@H](CCCCN(C)C)C(=O)N[C@@H](Cc2ccc(C)cc2)C(=O)N[C@@H](CC(=O)O)C(=O)O)cc1 [HYMetFMetKMet2FMetD] (H-HY(Me)[Phe(4-Me)][Lys(Me2)][Phe(4-Me)]D-OH; N-terminus and C-terminus assumed)	52	42	high product purity	performed poorly in terms of yield	48	90	–	–	–	–	–	–	–	–
HFRRHL [HFRRHL, reference compound]	93	93	–	–	91	86	–	–	–	–	–	–	1 to 10	–
HWRGWV [HWRGWV, reference compound]	95	95	–	–	85	83	81	90	83	85	83	85	1 to 10	81%-83
HYFKFD [HYFKFD, reference compound]	78	78	–	–	54	87	–	–	–	–	–	–	1 to 10	–
